Some of the results follow.

The target in this test is T1, OsWOX13 (Oryza sativa, UniProt Q5QMM3 1-267).
T1 sequence: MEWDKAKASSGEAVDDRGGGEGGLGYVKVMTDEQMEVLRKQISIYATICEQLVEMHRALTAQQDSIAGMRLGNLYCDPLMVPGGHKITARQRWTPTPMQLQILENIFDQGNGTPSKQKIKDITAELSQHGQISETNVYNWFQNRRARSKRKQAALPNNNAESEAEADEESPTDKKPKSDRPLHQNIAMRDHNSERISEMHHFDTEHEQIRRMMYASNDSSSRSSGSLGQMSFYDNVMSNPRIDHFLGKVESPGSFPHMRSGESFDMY
The test is described as follows: protein-binding microarray (RPBM); PBS, 2% BSA, 51.3 ng/ul salmon testes DNA, 50 uM zinc acetate, 200 nM TF, 25 C, 1 h; high values mean tight binding. Particulars: protein: recombinant; tags: N-terminal polyhistidine and DsRed monomer fusion (pET32a); label: CyDye5-dUTP incorporated in the synthesized complementary strand; 3' TTTTT single-stranded linker to array surface; dsDNA, one strand shown. The gist of the method:
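Transcription factors were each fused at the N-terminus to a polyhistidine tag plus DsRed and expressed in E. coli BL21-CodonPlus before Ni–NTA purification. Binding to a double-stranded custom Agilent array was carried out with 200 nM protein at 25 °C for 1 h in PBS, 2% BSA, salmon testes DNA and 50 µM zinc acetate. The binding signal is per-feature fluorescence intensity, in arbitrary units, on an Axon 4000B scanner.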
Take “GATAGCAATTAATTAGTTTATGCCTCTCTTGACAGGGACACGGAGTCACCTAGTGCAG”: the binding signal is 19700 fluorescence intensity (a.u.). Turning to “ATTAATATCGTTATGATTTGATACGATTTGGTCTTCCCTTCGGAGTCACCTAGTGCAG”, the binding signal was 13600 fluorescence intensity (a.u.).

Consider “ATTTGATTTGCTTCTTTAACTTTTGGAACTAGAGTAAGTACGGAGTCACCTAGTGCAG”, for which the binding signal was 33200 fluorescence intensity (a.u.). Then “GCTAGTGCCCTGTTGATTGTGAAAGAATTTGCTAGTTTCCCGGAGTCACCTAGTGCAG”, with 3800 fluorescence intensity (a.u.).

As for “TTTAGTAATTGGTAGAGCTCAAATTTCTAAATTTAACTTCCGGAGTCACCTAGTGCAG”, the binding signal was 6730 fluorescence intensity (a.u.). Take “CACACGTAATTGATACACATTACCATCACTATCAACCACTCGGAGTCACCTAGTGCAG”: the binding signal is 48700 fluorescence intensity (a.u.). With “TTATACATCCAAATTTGATTGTTGCGTGCTTATTTTGTTGCGGAGTCACCTAGTGCAG”, the binding signal is 13700 fluorescence intensity (a.u.). With “TGATATTTCTGTTTATTTGATTTACATGATACACTAATTTCGGAGTCACCTAGTGCAG”, the binding signal is 3560 fluorescence intensity (a.u.).

In the case of “GTATGCTATCCTCTGTCCCTTGATGAACTGAAAGGGACACCGGAGTCACCTAGTGCAG”, the binding signal is 5930 fluorescence intensity (a.u.). Turning to “TTAGATTGCGCTCGCCTGATTCGCTGCATCTTGTTCTTCTCGGAGTCACCTAGTGCAG”, the binding signal is 4270 fluorescence intensity (a.u.).

For “TAATTAAAACACAATCAATCATACGTTAATACCATCTCATCGGAGTCACCTAGTGCAG”, the binding signal was 14300 fluorescence intensity (a.u.). On to “GTAAAGATCTCTGATTGAAACTGGACATGCCACAACAAACCGGAGTCACCTAGTGCAG”, for which the binding signal was 10700 fluorescence intensity (a.u.). As to “TTGAGCCAGTTATTGGCGCAGATTATCGACTTGATTGTAGCGGAGTCACCTAGTGCAG”, the binding signal was 8380 fluorescence intensity (a.u.).

Turning to “GCGATGATTGGCTTGCACTCTGCCACGTAGGATCCGCTCCCGGAGTCACCTAGTGCAG”, the binding signal is 39400 fluorescence intensity (a.u.).

For “AAATGATGGATTTAATTCGATATCTCGATCGTAATTTACACGGAGTCACCTAGTGCAG”, the binding signal is 3420 fluorescence intensity (a.u.). “TTAAATTTTCTATATAAATCTATTCAAATCTGCATAAATGCGGAGTCACCTAGTGCAG”: the binding signal was 3870 fluorescence intensity (a.u.). Then “CTAATGATTATACTAACCATATATTTATGTTAAGTATTATCGGAGTCACCTAGTGCAG”, with 8080 fluorescence intensity (a.u.). In the case of “ACTTGACAGGAATTGCAGAAAGGCCCCTCGCCAAAACTCACGGAGTCACCTAGTGCAG”, the binding signal was 30900 fluorescence intensity (a.u.). For “TCTTCTGATTGCTTTCACACAAGATCCAGCAAAATTAATTCGGAGTCACCTAGTGCAG”, the binding signal is 16900 fluorescence intensity (a.u.). For “CCCCAATCAGCCACCACCATCCACACTACCCTCCATCTTTCGGAGTCACCTAGTGCAG” the value was 6300 fluorescence intensity (a.u.); for “AGATTGACAAAGTTATAACAAGTGTGTCACTGTAAGAATACGGAGTCACCTAGTGCAG”, 7760 fluorescence intensity (a.u.); for “AGAGTACATAATTGAAGGTGGGAACGCCGAAATGTACTGACGGAGTCACCTAGTGCAG”, 13800 fluorescence intensity (a.u.). For the sequence “TTTATCAATTGAATTATCGAAACTAATGAATAGTGTGACGCGGAGTCACCTAGTGCAG”, the binding signal was 13100 fluorescence intensity (a.u.). Then “TGGTGCGAGTTAATTAATTATCTACCTTTACCCTTTAAGCCGGAGTCACCTAGTGCAG”, with 17300 fluorescence intensity (a.u.); and “TTTAAATGGAGAAGAGTGACAGAGGTGGATAAACCCGCTTCGGAGTCACCTAGTGCAG”, with 4610 fluorescence intensity (a.u.). “TTTAATTGTTCTGCGATTACGGTAGAAATAGATCGGGCTTCGGAGTCACCTAGTGCAG”: the binding signal is 22500 fluorescence intensity (a.u.). Consider “GGAACCGCAAGGGTTAATTGAGATCAAGTTCAGGTCAGAGCGGAGTCACCTAGTGCAG”, for which the binding signal is 4610 fluorescence intensity (a.u.). On to “CATGGCTAATTATCGCCAGATCTAATGGAGCCACAAATGCCGGAGTCACCTAGTGCAG”, for which the binding signal is 9610 fluorescence intensity (a.u.). “GTTGATGGTTAATTGCTTCCATAATTCTATTGCTGTATATCGGAGTCACCTAGTGCAG”: the binding signal was 33900 fluorescence intensity (a.u.). Consider “TGATGATTTGTGTGTACTAATTCCACTGAAACTTTCAAGGCGGAGTCACCTAGTGCAG”, for which the binding signal is 34400 fluorescence intensity (a.u.). Regarding “TTGTAATTTCTAGAAATGGCATTGAGGAAATTACCAGTCTCGGAGTCACCTAGTGCAG”, the binding signal is 7620 fluorescence intensity (a.u.). On to “TTGGATTGGTTACTATGTTTGCATTTACACTATTTATTATCGGAGTCACCTAGTGCAG”, for which the binding signal is 8100 fluorescence intensity (a.u.).

For “CTTCATTAATTTTGGCCAAATATGATAATGTAGTGATGTTCGGAGTCACCTAGTGCAG”, the binding signal was 7330 fluorescence intensity (a.u.). Turning to “AAGATTAAATTTTGCTTCATGTACCACGTGAATACCACGTCGGAGTCACCTAGTGCAG”, the binding signal is 20700 fluorescence intensity (a.u.). Then “GAATAATTATTACACAATGCTAATTAATTTCACAATATTGCGGAGTCACCTAGTGCAG”, with 38800 fluorescence intensity (a.u.); and “GGTGATTAGTCCACACTAACCAATAATGGTGACGGACGCTCGGAGTCACCTAGTGCAG”, with 15800 fluorescence intensity (a.u.); and “AGATAATTGAATAGGAGATGAGAGGATGGGAGGGTCAGAGCGGAGTCACCTAGTGCAG”, with 36600 fluorescence intensity (a.u.). Regarding “TTTAAATTTACCAACTATTTTGCAGGGCAAGTTTAGGCATCGGAGTCACCTAGTGCAG”, the binding signal is 7890 fluorescence intensity (a.u.). Then “TATTGTCAATTACAGGTCTAATTGTTTTATTTGGGTGATTCGGAGTCACCTAGTGCAG”, with 37200 fluorescence intensity (a.u.); and “GCACACCCTAATTTGCTTTACCTAGGCCGTGTTTAGTTCCCGGAGTCACCTAGTGCAG”, with 4770 fluorescence intensity (a.u.); and “GAGAGATTGGGGAGATTGTCACTCGTTTTCCGCGCACACGCGGAGTCACCTAGTGCAG”, with 10200 fluorescence intensity (a.u.).

Take “CGTAGATTAATAACAAAACAAATTACATATTCCACCTGTACGGAGTCACCTAGTGCAG”: the binding signal is 30600 fluorescence intensity (a.u.).

Source of the values: paper PMC7819943, “Rice protein-binding microarrays: a tool to detect cis-acting elements near promoter regions in rice”.
